Reference: patent US20260174887A1 (published 2026)

Target: T1, recombinant extracellular domain of human TROP2 (human, UniProt P09758 27-274)
T1 construct: extracellular domain; also called Human Trop 2 ECD; Trop2 ECD
T1 sequence (looked up): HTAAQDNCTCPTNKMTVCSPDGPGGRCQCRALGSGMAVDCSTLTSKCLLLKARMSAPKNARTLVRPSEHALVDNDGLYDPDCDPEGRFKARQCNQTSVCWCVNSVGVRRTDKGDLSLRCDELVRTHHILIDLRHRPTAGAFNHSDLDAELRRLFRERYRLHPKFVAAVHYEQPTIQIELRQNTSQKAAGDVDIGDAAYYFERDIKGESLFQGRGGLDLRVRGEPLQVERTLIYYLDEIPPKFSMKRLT
Test: ELISA, Trop 2 ECD coated at 0.5 ug/mL, anti-human Fc HRP
Procedure: Human Trop 2 ECD at concentration of 0.5 μg/mL was coated on 96-well plates at 4° C. for overnight. The plates were then blocked with 3% BSA-PBST for 1 h at room temperature. […] After incubation goat anti-human FC secondary antibody (HRP) (Sinobiological, SSA001) was added at a ratio of 1:100000 and incubated at room temperature for 60 min again. Following the wash, the plate was treated with TMB solution (Sigma, T0440) as an HRP substrate, and the reaction was stopped with 1 M H₂SO₄. The absorbance for each well was detected at 450 nm wavelength.

B1: ADC-2 (other)
heavy: QVQLQQSGSELKKPGASVKVSCKASGYTFTNYGMNWVKQAPGQGLKWMGWINTYTGEPTYTDDFKGRFAFSLDTSVSTAYLQISSLKADDTAVYFCARGGFGSSYWYFDVWGQGSLVTVSSASTKGPSVFPLAPSSKSTSGGTAALGCLVKDYFPEPVTVSWNSGALTSGVHTFPAVLQSSGLYSLSSVVTVPSSSLGTQTYICNVNHKPSNTKVDKRV[human IgG1 Fc not shown]
light: DIQLTQSPSSLSASVGDRVSITCKASQDVSIAVAWYQQKPGKAPKLLIYSASYRYTGVPDRFSGSGSGTDFTLTISSLQPEDFAVYYCQQHYITPLTFGAGTKVEIKRTVAAPSVFIFPPSDEQLKSGTASVVCLLNNFYPREAKVQWKVDNALQSGNSQESVTEQDSKDSTYSLSSTLTLSKADYEKHKVYACEVTHQGLSSPVTKSFNRGECGALPET
modifications: C-terminal GG of LPETGG removed by Sortase A; the T of LPET is joined by a peptide bond to the G3 of Linker-Payload 3 (drug-linker)
notes: Antibody-drug conjugate of GQhRS7 with Linker-Payload 3
**Q.** Does B1 bind?
**A.** binds

B2: Trodelvy (other)
heavy: B1 heavy
light: DIQLTQSPSSLSASVGDRVSITCKASQDVSIAVAWYQQKPGKAPKLLIYSASYRYTGVPDRFSGSGSGTDFTLTISSLQPEDFAVYYCQQHYITPLTFGAGTKVEIKRTVAAPSVFIFPPSDEQLKSGTASVVCLLNNFYPREAKVQWKVDNALQSGNSQESVTEQDSKDSTYSLSSTLTLSKADYEKHKVYACEVTHQGLSSPVTKSFNRGEC
modifications: drug-linker (SN-38) conjugated; sites not stated
notes: also called IMMU-132
**Q.** Does B2 bind?
**A.** binds
